# Among all 39,000 compounds or so, about 220 (0.56%) showed activity. The list shows a part of the results.
# Tested on: Escherichia coli K-12 BW25113
# Experiment: relative growth (OD600 normalised to plate interquartile mean) (fraction); higher = less growth inhibition, active = 0.2 or less
# Conditions: 50 µM; LB; incubation time: overnight (16-24 h)
# 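Also: static incubation at 37 °C against the wild-type strain, values averaged over two biological replicates.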
row,SMILES,relative growth
1,C[C@@H]1CN([C@@H](C)CO)C(=O)Cc2cc(NC(=O)CCN3CCOCC3)ccc2O[C@@H]1CN(C)S(=O)(=O)c1ccc(F)cc1,inactive: 1.01
2,Cc1ccc(S(=O)(=O)N(C)C[C@@H]2Oc3ccc(NS(=O)(=O)c4ccccc4)cc3C(=O)N([C@H](C)CO)C[C@H]2C)cc1,inactive: 1.01
3,C[C@H](O)C#Cc1cnc2c(c1)C(=O)N([C@H](C)CO)C[C@@H](C)[C@@H](CN(C)C(=O)CN1CCOCC1)O2,inactive: 1
4,CCOC(=O)c1c(CN2CCN(c3ccccc3C)CC2)n(-c2ccccc2)c2cc(Br)c(O)cc12,inactive: 1.03
5,C[C@H]1CN([C@@H](C)CO)C(=O)c2cc(NC(=O)Cn3cnnn3)ccc2O[C@H]1CN(C)Cc1ccccc1,inactive: 0.967
6,COc1ccc(NC(=O)Nc2cccc3c2O[C@H](CN(C)Cc2ccc(Cl)c(Cl)c2)[C@H](C)CN([C@H](C)CO)C3=O)cc1,inactive: 1.02
7,C[C@@H]1CN([C@H](C)CO)C(=O)c2cc(-c3cncnc3)cnc2O[C@H]1CN(C)C(=O)Nc1ccc2c(c1)OCO2,inactive: 0.999
8,Cn1cnc(S(=O)(=O)N[C@H]2C=C[C@@H](CC(=O)NCC3CC3)O[C@@H]2CO)c1,inactive: 0.994
9,C[C@H]1CCCCO[C@@H](CN(C)C(=O)Nc2ccc3c(c2)OCO3)[C@@H](C)CN([C@@H](C)CO)C(=O)c2cc(NC(=O)c3ccncc3)ccc2O1,inactive: 0.973
10,C[C@H](CO)N1C[C@H](C)[C@@H](CN(C)Cc2ccccn2)Oc2ncc(C#Cc3cccc(F)c3)cc2C1=O,inactive: 1
11,COc1ccc(C#Cc2cnc3c(c2)C(=O)N([C@H](C)CO)C[C@@H](C)[C@@H](CN(C)C(=O)CN(C)C)O3)cc1,inactive: 1.02
12,CC(C)NC(=O)N(C)C[C@@H]1OCCCC[C@H](C)Oc2ccc(NS(=O)(=O)c3cn(C)cn3)cc2C(=O)N([C@H](C)CO)C[C@@H]1C,inactive: 1
13,CC1CC(=O)NN=C1c1ccc(NN=C(C#N)C#N)cc1 (centres undefined),inactive: 1.05
14,N#CCCS(=O)(=O)c1ccc(N)cc1,inactive: 1.03
15,C=CCN(Cc1ccccc1)C(=O)[C@@H]1N(c2cccc(Cl)c2CO)C(=O)[C@H]2[C@H](C(=O)OCC)[C@@H]3C=C[C@]12O3,inactive: 1.04
16,C[C@H](CO)N1C[C@H](C)[C@H](CN(C)C(=O)C2CCOCC2)Oc2ncc(C#Cc3ccccc3F)cc2C1=O,inactive: 1.01
17,C[C@H](CO)N1C[C@H](C)[C@@H](CN(C)S(=O)(=O)c2ccc(F)cc2)Oc2ccc(NS(=O)(=O)c3ccc(F)cc3)cc2CC1=O,inactive: 0.981
18,Cc1cc(C(=O)Nc2cccc3c2O[C@@H](CN(C)C(=O)Nc2c(C)noc2C)[C@H](C)CN([C@@H](C)CO)C3=O)n(C)n1,inactive: 0.981
19,Cc1noc(C)c1NC(=O)Nc1ccc2c(c1)C(=O)N([C@H](C)CO)C[C@H](C)[C@@H](CN(C)S(=O)(=O)c1cccs1)OCCCC[C@@H](C)O2,inactive: 0.979
20,OCc1ccc2nccn2c1,inactive: 0.969

row,SMILES,relative growth
1,C[C@H]1CN([C@@H](C)CO)C(=O)Cc2cc(NC(=O)CCN3CCOCC3)ccc2O[C@@H]1CN(C)C(=O)Nc1ccc(F)cc1,inactive: 0.936
2,Cc1ccc(S(=O)(=O)N(C)C[C@@H]2Oc3ccc(NS(=O)(=O)c4ccc(F)cc4)cc3C(=O)N([C@H](C)CO)C[C@@H]2C)cc1,inactive: 1.08
3,C[C@H](CO)N1C[C@H](C)[C@@H](CN(C)Cc2ccncc2)Oc2ccc(NS(=O)(=O)c3cn(C)cn3)cc2C1=O,inactive: 1.01
4,C/C=C/c1ccc([C@H]2[C@@H](CO)N(S(=O)(=O)Cc3ccccc3)C23CN(C(=O)C2CCOCC2)C3)cc1,inactive: 0.995
5,C[C@H](CO)N1C[C@H](C)[C@@H](CN(C)Cc2ccc(C(F)(F)F)cc2)OCCCC[C@H](C)Oc2ccc(NC(=O)Nc3ccc(C(F)(F)F)cc3)cc2C1=O,inactive: 1.03
6,CN1CCN(C(=O)C[C@H]2CC[C@@H]3[C@H](COC[C@H](O)CN3CC3CCCC3)O2)CC1,inactive: 1
7,C=C1[C@H]2C[C@@H]3C(=C4[C@H](CO[C@@H]4[C@H]4CCCN4S(=O)(=O)c4ccccc4[N+](=O)[O-])[C@H]4C(=O)N(C)C(=O)[C@H]43)C[C@@H]2C(=O)N1C,inactive: 0.938
8,C[C@H]1CN([C@@H](C)CO)C(=O)c2cccc(NC(=O)Nc3ccc(C(F)(F)F)cc3)c2O[C@H]1CN(C)C(=O)NC1CCCCC1,inactive: 0.913
9,CN1C[C@@H](O)COC[C@@H]2O[C@@H](CC(=O)N3CCN(c4ccccc4)CC3)CC[C@H]21,inactive: 1.01
10,COc1ccc(NC(=O)N(C)C[C@H]2OCCCC[C@@H](C)Oc3ccc(NS(=O)(=O)c4cccs4)cc3C(=O)N([C@H](C)CO)C[C@@H]2C)cc1,inactive: 0.995
11,C[C@H](CO)N1C[C@H](C)[C@@H](CN(C)CC2CCOCC2)Oc2cc(-c3cccnc3)ccc2S1(=O)=O,inactive: 0.961
12,COc1ccc(S(=O)(=O)N2C[C@@H](O)COC[C@H]3O[C@@H](CC(=O)NCc4ccc(Cl)c(Cl)c4)CC[C@@H]32)cc1,inactive: 1.02
13,COC(=O)Nc1c(C)cc(C)cc1C,inactive: 1
14,C[C@@H]1CCCCO[C@H](CN(C)Cc2ccc(C(F)(F)F)cc2)[C@H](C)CN([C@@H](C)CO)C(=O)c2cc(NC(=O)CCC(F)(F)F)ccc2O1,inactive: 1.02
15,COc1ccc(NC(=O)N(C)C[C@@H]2Oc3ccc(NC(=O)Cn4cnnn4)cc3CC(=O)N([C@@H](C)CO)C[C@H]2C)cc1,inactive: 0.993
16,Nc1nc(=O)n([C@@H]2CS[C@H](CO)O2)cc1F,inactive: 0.988
17,C[C@H]1CCCCO[C@H](CN(C)C)[C@@H](C)CN([C@@H](C)CO)C(=O)c2cc(NC(=O)CCCCCC(=O)Nc3ccccc3N)ccc2O1,inactive: 0.988
18,C[C@H](CO)N1C[C@H](C)[C@@H](CN(C)S(C)(=O)=O)Oc2c(NC(=O)CCC(F)(F)F)cccc2C1=O,inactive: 0.965
19,CCC[C@@H]1C[C@@H](C(=O)N[C@@H]([C@H]2O[C@H](SC)[C@H](O)[C@@H](O)[C@H]2O)[C@@H](C)O)N(C)C1,inactive: 0.936
20,C[C@@H]1CN([C@H](C)CO)C(=O)c2cc(NC(=O)c3ccccc3)ccc2O[C@@H](C)CCCCO[C@@H]1CN(C)Cc1ccc2c(c1)OCO2,inactive: 1.02

row,SMILES,relative growth
1,CN(C)CCCNC(=O)C[C@H]1CC[C@H]2[C@@H](COc3ccc(NC(=O)c4ccc5c(c4)OCO5)cc3C(=O)N2C)O1,inactive: 0.995
2,C[C@@H]1CN([C@H](C)CO)C(=O)c2cccc(NS(=O)(=O)c3ccc(F)cc3)c2O[C@H]1CN(C)Cc1ccc(Cl)c(Cl)c1,inactive: 0.985
3,C[C@@H]1CN([C@@H](C)CO)C(=O)c2cc(NS(=O)(=O)c3ccc(Cl)cc3)ccc2O[C@@H]1CN(C)S(C)(=O)=O,inactive: 0.979
4,C[C@H](CO)N1C[C@H](C)[C@H](CN(C)Cc2ccc(Cl)c(Cl)c2)OCCCC[C@H](C)Oc2ccc(NC(=O)Nc3ccccc3)cc2C1=O,inactive: 1.07
5,Nc1nc(=O)[nH]cc1Br,inactive: 1.04
6,CN1C(=O)C[C@@H]2[C@@H]1CCN2C(=O)c1ccc[nH]1,inactive: 0.983
7,C[C@H]1CCCCO[C@@H](CN(C)C(=O)Cc2ccccc2)[C@@H](C)CN([C@@H](C)CO)C(=O)c2cc(NS(=O)(=O)c3cccs3)ccc2O1,inactive: 0.976
8,C[C@@H]1CCCCO[C@H](CN(C)S(=O)(=O)c2cn(C)cn2)[C@@H](C)CN([C@@H](C)CO)C(=O)c2cc(NC(=O)CCCN(C)C)ccc2O1,inactive: 0.971
9,O=C(C[C@H]1CC[C@@H](NC(=O)CN2CCOCC2)[C@H](CO)O1)NCc1cccc(F)c1,inactive: 0.98
10,CO[C@@H]1CN(C)C(=O)c2ccc(NC(=O)C3CCOCC3)cc2OC[C@@H](C)N(Cc2cccnc2)C[C@H]1C,inactive: 1.02
11,Cc1ccc(S(=O)(=O)Nc2ccc3c(c2)C(=O)N([C@H](C)CO)C[C@H](C)[C@H](CN(C)Cc2ccc(Oc4ccccc4)cc2)O3)cc1,inactive: 1.02
12,C[C@@H]1CN([C@H](C)CO)C(=O)c2cccc(NS(=O)(=O)c3cn(C)cn3)c2O[C@@H]1CN(C)S(=O)(=O)c1cccs1,inactive: 0.983
13,COc1ccc(CN(C)C[C@@H]2Oc3ccc(NC(=O)Nc4cccc5ccccc45)cc3C(=O)N([C@H](C)CO)C[C@H]2C)cc1,inactive: 0.997
14,C[C@H](CO)N1C[C@H](C)[C@H](CN(C)Cc2ccc3c(c2)OCO3)Oc2c(NC(=O)Nc3ccc(C(F)(F)F)cc3)cccc2C1=O,inactive: 0.988
15,C[C@@H]1CN([C@@H](C)CO)S(=O)(=O)c2ccc(Br)cc2O[C@H]1CN(C)Cc1cccc(F)c1,inactive: 1.04
16,C[C@H](CO)N1C[C@H](C)[C@H](CN(C)S(=O)(=O)c2ccccc2)Oc2c(NS(=O)(=O)c3ccccc3)cccc2C1=O,inactive: 1.01
17,C[C@@H]1O[C@@H](O[C@@H]2[C@@H](O)[C@H](C)O[C@@H](OC[C@H]3O[C@@H](Oc4c(-c5ccc(O)cc5)oc5cc(O)cc(O)c5c4=O)[C@H](O)[C@@H](O)[C@H]3O)[C@@H]2O)[C@H](O)[C@H](O)[C@H]1O,inactive: 1.03
18,C[C@H](CO)N1C[C@H](C)[C@@H](CN(C)C(=O)c2cnccn2)Oc2ncc(-c3cccc(C#N)c3)cc2C1=O,inactive: 1.01
19,COc1ccc(S(=O)(=O)N(C)C[C@H]2Oc3c(NC(=O)C4CCOCC4)cccc3C(=O)N([C@@H](C)CO)C[C@H]2C)cc1,inactive: 0.995
